# This is one part of the list.
# What was measured:
# HSkMC = human skeletal muscle cells; test: cytotoxicity call (relative viability < 0.9); settings: 10 µM
# HepG2 = test: cytotoxicity call (relative viability < 0.9); settings: 10 µM
# S. aureus RN4220 = test: growth inhibition call (relative growth <= 0.2); settings: 50 µM
SMILES,cytotoxicity call (HSkMC),cytotoxicity call (HepG2),growth inhibition call (S. aureus RN4220)
C[C@H](CO)N1C[C@H](C)[C@H](CN(C)Cc2ccc(-c3ccccc3)cc2)Oc2ccc(NC(=O)c3ccncc3)cc2C1=O,inactive,inactive,inactive
Cc1noc(C)c1NC(=O)N(C)C[C@H]1OCCCC[C@@H](C)Oc2ccc(NS(=O)(=O)c3ccccc3)cc2C(=O)N([C@@H](C)CO)C[C@@H]1C,inactive,inactive,inactive
COc1ccc2c3c([nH]c2c1)[C@H](CO)N(C[C@]13CN(Cc2ccccc2Cl)C1)S(=O)(=O)c1cn(cn1)C,inactive,inactive,inactive
Cc1ccccc1N1CCN(S(=O)(=O)C[C@]23CC[C@H](C[C@@H]2NC(=O)[C@@H](N)CCS(C)(=O)=O)C3(C)C)CC1,inactive,inactive,inactive
C[C@H]1CN([C@@H](C)CO)S(=O)(=O)c2ccc(-c3cccnc3)cc2O[C@@H]1CN(C)C(=O)c1cccc(F)c1,inactive,inactive,inactive
C[C@H](CO)N1C[C@H](C)[C@@H](CN(C)C(=O)Nc2ccc(F)cc2)OCc2ccccc2-c2c(n(C)c3ccccc23)C1=O,inactive,inactive,inactive
O=C(N[C@H](c1ccc(F)cc1)c1ccc2ccccc2n1)C1CCN(Cc2ccc(Oc3ccccc3)cc2)CC1,inactive,active,inactive
O=C(C[C@H]1C[C@H]2c3cc(NS(=O)(=O)c4ccc(F)cc4)ccc3O[C@H]2[C@H](CO)O1)NCc1ccccn1,inactive,inactive,inactive
C[C@H](CO)N1C[C@H](C)[C@H](CN(C)CC2CCCCC2)Oc2ccc(NC(=O)Nc3ccccc3)cc2C1=O,inactive,inactive,inactive
CCCN(C)C[C@@H]1OCCCC[C@@H](C)Oc2ccc(NC(=O)NC3CCCCC3)cc2C(=O)N([C@H](C)CO)C[C@@H]1C,inactive,active,inactive
COc1ccc(NC(=O)Nc2ccc3c(c2)CC(=O)N([C@@H](C)CO)C[C@@H](C)[C@H](CN(C)CC2CCCCC2)O3)cc1,inactive,active,inactive
CCOC(=O)C1=C(C)NC(=O)N[C@@H]1C,inactive,inactive,inactive
COc1cc2c(Oc3ccc(NC(=O)C4(C(=O)Nc5ccc(F)cc5)CC4)cc3F)ccnc2cc1OCCCN1CCOCC1,active,active,inactive
c1ccc(-c2cccs2)cc1,inactive,inactive,inactive
CCCC(=O)Nc1ccc2c(c1)C(=O)N(C)[C@H]1CC[C@H](CC(=O)NCCN3CCCCC3)O[C@@H]1CO2,inactive,inactive,inactive
Cc1ccccc1S(=O)(=O)N(C)C[C@@H]1Oc2ccc(NC(=O)Nc3ccc(Cl)c(Cl)c3)cc2CC(=O)N([C@@H](C)CO)C[C@@H]1C,active,active,inactive
Cc1ccc(NC2C(=O)NC(=O)N2N)cc1 (stereo not drawn),inactive,inactive,inactive
COc1ccc(NC(=O)Nc2ccc3c(c2)C(=O)N([C@@H](C)CO)C[C@@H](C)[C@@H](CN(C)C(=O)Nc2cccc4ccccc24)OCCCC[C@H](C)O3)cc1,inactive,inactive,inactive
C[C@H]1CN([C@@H](C)CO)C(=O)c2cc(C3=CCCCC3)cnc2O[C@@H]1CN(C)C(=O)CN1CCOCC1,inactive,inactive,inactive
C[C@H](CO)N1C[C@H](C)[C@@H](CN(C)S(=O)(=O)c2ccccc2)Oc2c(NS(=O)(=O)c3cccs3)cccc2C1=O,inactive,inactive,inactive
COc1ccc(S(=O)(=O)Nc2ccc3c(c2)C(=O)N([C@@H](C)CO)C[C@H](C)[C@@H](CN(C)Cc2ccc(Cl)c(Cl)c2)O3)cc1,active,inactive,inactive
CCCNC(=O)N1C[C@@H](C)[C@@H](OC)CN(C)C(=O)c2cc(NS(=O)(=O)CC(F)(F)F)ccc2OC[C@@H]1C,inactive,inactive,inactive
CCO[C@H]1OC(C(=O)N2CCOCC2)=C[C@@H](c2ccccc2)[C@@H]1CCCOC(=O)NCCCCCC(=O)NO,inactive,inactive,inactive
COc1ccc(S(=O)(=O)Nc2ccc3c(c2)C(=O)N([C@H](C)CO)C[C@@H](C)[C@@H](CN(C)C(=O)NC2CCCCC2)OCCCC[C@@H](C)O3)cc1,inactive,inactive,inactive
CN1CCN(C(=O)C[C@@H]2CC[C@@H](NC(=O)c3ccc4c(c3)OCO4)[C@@H](CO)O2)CC1,inactive,inactive,inactive
C[C@@H]1CN([C@@H](C)CO)C(=O)c2cc(NC(=O)Cc3ccccc3)ccc2O[C@H]1CN(C)S(=O)(=O)c1cn(C)cn1,inactive,inactive,inactive

# — the antibiotic and cytotoxicity screens of Wong et al. (2023)
